Results on 26 compounds are retold here after PubChem BioAssay AID360 (National Center for Advancing Translational Sciences (NCATS), 2006).

Each structure is given as a SMILES string. Out of some 48,000 compounds screened, about 550 (1.1%) were called active. Not shown: some 4% with an inconclusive outcome. No stated cut-off is given here; in the data, active means potency below about 15 µM; inconclusive means mostly about 16 µM to 33 µM; inactive means weaker than that. This is one part of the list. Bounds are passed on as bounds.
Potency means the concentration at half of the fitted maximal effect.

Chain of UniProt P04062 (P04062 whole entry, looked up): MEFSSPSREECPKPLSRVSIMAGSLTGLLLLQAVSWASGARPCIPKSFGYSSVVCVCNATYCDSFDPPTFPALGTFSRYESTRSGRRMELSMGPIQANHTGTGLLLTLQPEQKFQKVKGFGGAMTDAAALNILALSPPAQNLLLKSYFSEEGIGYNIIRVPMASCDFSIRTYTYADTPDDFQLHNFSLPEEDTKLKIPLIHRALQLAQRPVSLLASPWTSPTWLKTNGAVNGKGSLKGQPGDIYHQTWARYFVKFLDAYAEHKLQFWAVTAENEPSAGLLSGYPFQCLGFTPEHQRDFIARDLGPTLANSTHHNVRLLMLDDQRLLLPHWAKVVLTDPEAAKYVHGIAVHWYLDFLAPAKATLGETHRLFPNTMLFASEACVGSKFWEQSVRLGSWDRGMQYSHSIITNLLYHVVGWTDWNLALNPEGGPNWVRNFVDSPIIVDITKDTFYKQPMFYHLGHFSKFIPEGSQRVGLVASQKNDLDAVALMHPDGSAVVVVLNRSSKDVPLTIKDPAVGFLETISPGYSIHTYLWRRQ

The experiment concerns the target Lysosomal acid glucosylceramidase (Homo sapiens) (UniProt P04062). As to the kind of experiment: Glucocerebrosidase.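 Further: the screen sought inhibitors.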 The settings on record: purified enzyme, resorufin glucoside fluorescence (screen aimed at inhibitors), 20 min. In a few lines:
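Wild-type enzyme at 0.2 nM final in 50mM citric acid/KH2PO4, 10mM sodium taurocholate, 0.01% tween-20, pH 5.9, with resorufin beta-D-glucopyranoside at 30 uM final. Compounds titrated, 20 min at RT, red fluorescence read; AC50 from titration.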
With `CCOC(=O)C1CCCN(c2nc3ccccc3nc2C(C#N)C(=O)NCc2ccccc2)C1` (stereo unspecified), the Potency is inactive: > 76.9 µM. The value for `Cc1c(Cl)cnc(NC(=O)COC(=O)C(NC(=O)c2ccco2)C(C)C)c1Cl` (stereo unspecified) was inactive: > 76.9 µM.

As to `Cc1ccc(C)n1-c1ccc(-c2nnc3n2CCCCC3)s1`, the Potency is inactive: > 76.9 µM.

`CNC(=O)CSc1nnc(-c2cccnc2)n1CCc1ccccc1`: the Potency was inactive: > 76.9 µM. The value for `c1ccc2sc(NC3=NCN(Cc4ccc5c(c4)OCO5)CN3)nc2c1` was inactive: > 76.9 µM.

For `COc1cccc(-n2nnc3c(=O)n(Cc4ccc(C)cc4)cnc32)c1`, the Potency was inactive: > 76.9 µM. Regarding `CCn1c(SCC(=O)Nc2ccc3c(c2)OCCO3)nnc1-c1ccccn1`, the Potency was inactive: > 76.9 µM. The value for `O=C(NCCCN1CCOCC1)C(C(=O)c1ccccc1)n1ccccc1=O` (stereo unspecified) was inactive: > 76.9 µM; that for `CCOC(=O)CSc1nnc(C2CCCCC2)n1C` was inactive: > 76.9 µM.

On to `COc1ccc(C(=O)Nc2ccccc2C(=O)NCc2ccco2)cc1OC`, for which the Potency was inactive: > 76.9 µM. The value for `CCOC(=O)Cn1nc(-c2ccccc2)ccc1=O` was inactive: > 76.9 µM; that for `Fc1ccc2nc(Nc3nc4c(s3)CCCC4)sc2c1` was inactive: > 76.9 µM.

In the case of `CCOC(=O)C1CCCN(C(=O)c2cc3c(=O)n4cccc(C)c4nc3n2C)C1` (stereo unspecified), the Potency is inactive: > 76.9 µM. For `Nn1c(Cc2cccc3ccccc23)nnc1SCC(=O)NC1CCS(=O)(=O)C1` (stereo unspecified), the Potency is inactive: > 76.9 µM. Then `O=C(NCCc1nc2ccccc2[nH]1)c1ccco1`, with inactive: > 76.9 µM; and `N#Cc1c(N)nc2c(c1-c1ccncc1)CCCCC2`, with inactive: > 76.9 µM; and `COc1ccc(Cn2nnnc2C(c2ccccn2)N2CCN(c3cc(Cl)ccc3C)CC2)cc1` (stereo unspecified), with inactive: > 76.9 µM. Then `Cc1nc2ccc(NC(=O)NCc3ccco3)cc2s1`, with inactive: > 76.9 µM; and `Cc1ccc(SCCC(=O)N2CCCC2)cc1`, with inactive: > 76.9 µM; and `O=S(=O)(c1ccc(S(=O)(=O)n2cnc3ccccc32)cc1)N1CCCCCC1`, with inactive: > 76.9 µM. With `Cc1cccc(CSc2nnc(-c3ccco3)n2C)c1`, the Potency was inactive: > 76.9 µM. With `Cc1cccc(C)c1NC(=O)N1C2CCCC1CC(NC(=O)C(C)(C)C)C2` (stereo unspecified), the Potency was inactive: > 76.9 µM.

For the compound `COc1cccc(OCC(=O)Nc2ccccc2NC(C)=O)c1`, the Potency is inactive: > 76.9 µM. The value for `CCn1cnc2sc(C(=O)Nc3ccc4c(c3)OCO4)c(C)c2c1=O` was inactive: > 76.9 µM; that for `Oc1ccccc1-c1nnc(SCCN2CCOCC2)n1Cc1ccccc1` was “inactive”. Then `COc1ccc(CCCc2nnc(SCC(=O)Nc3nc(C)cs3)n2C)cc1C`, with inactive: > 76.9 µM.
